The record followed here is PubChem BioAssay AID463173 (ICCB-Longwood Screening Facility, Harvard Medical School, 2010).

Among all 52,000 compounds or so, about 4,300 (8.3%) were called active. Rule as the data show it: active = survival mostly below about 52% (no sharp cut-off); inactive = mostly above about 56%. Some of the results follow.

In the experiment the test system is DeltatarO mutant. Briefly: growth inhibition of S. aureus wild type versus tarO mutant, primary screen, teichoic acid synthesis inhibitors, RN4220, OD600 (AID 463173). The following applies: OD600, 18 h, stronger effect = lower value, screened at 18.75 µg/mL (by protocol).
With `CCc1cc(C(=O)Nc2c(C)nn(Cc3ccc(C)cc3)c2C)no1`, the survival is inactive: 64%.

In the case of `Cc1ccc(Cn2c(SCC(=O)NCc3ccc(Cl)cc3)nc3ccsc3c2=O)cc1`, the survival was inactive: 120%.

Turning to `CCOC(=O)c1noc2ncnc(N3CCN(c4ccccc4OC)CC3)c12`, the survival was inactive: 77%.

As for `CCOC(=O)c1c(C)c(-c2ccccc2)n(CC(=O)Nc2cc(OC)cc(OC)c2)c1C`, the survival is inactive: 66%.

As for `COc1cc(C2NC(=O)NC(C)=C2C(=O)Nc2cc(C)cc(C)c2)ccc1O` (stereo not given), the survival is active: 38%.

On to `CC(C)(C)NS(=O)(=O)c1ccc2nc(NC(=O)c3cccnc3)sc2c1`, for which the survival is inactive: 86%.

Regarding `COC(=O)CNC(=O)Nc1cc(C(=O)NCc2ccc(C)cc2)ccc1N1CCCC1`, the survival is inactive: 76%.

In the case of `CC(C(=O)O)c1n[nH]c(=O)c2ccccc12` (stereo not given), the survival is inactive: 91%.

For `Cc1ccc(Cl)cc1N1CCN(C(=O)c2cn(C3CCCCC3)c(=O)c3c2c2ccccc2n3C)CC1`, the survival was inactive: 71%.

Turning to `CN(C)c1ccc(C(CNC(=O)COc2ccc(Cl)cc2)N2CCOCC2)cc1` (stereo not given), the survival was inactive: 55%.

`COc1cccc(N2CCN(C(=O)C3CCC(CNS(=O)(=O)c4ccc(Br)s4)CC3)CC2)c1` (stereo not given): the survival is inactive: 78%.

Turning to `CCS(=O)(=O)N1CC(=O)N(c2ccccc2C)C(C)(C(=O)NC2CCCCC2)C1` (stereo not given), the survival is inactive: 84%.

Turning to `COCCCNC(=O)Cn1c(=O)n(-c2ccc(C)cc2)c(=O)c2c1c1cc(C)ccc1n2C`, the survival is inactive: 77%.

With `COc1ccc2c(c1)CCN(Cc1cc3sccc3n1CC1CCCCC1)C2`, the survival is inactive: 71%.

As to `COc1ccc(CNC(=O)Nc2cn(CC(C)C)c(=O)c3ccccc23)c(OC)c1`, the survival was inactive: 67%.

Take `Cc1cc(C)cc(NC(=O)C2CCN(S(=O)(=O)c3cccc4nonc34)CC2)c1`: the survival is inactive: 83%.

With `Cc1nc2sccn2c1-c1csc(Nc2cccc(Cl)c2C)n1`, the survival was active: 15%.

As for `CCc1ccc(CNC(=O)c2ccc(CSc3nc4ccncc4n3Cc3ccccc3)cc2)cc1`, the survival is inactive: 78%.

As to `CCC(Oc1ccccc1)C(=O)Nc1nnc(S(=O)(=O)Nc2ccccc2)s1` (stereo not given), the survival is active: 40%.

Consider `COCCNC(=O)CCC(=O)NNc1nc2ccccc2c2nc(-c3ccccc3)nn12`, for which the survival was inactive: 76%.

Turning to `CCOc1ccc(NC(=O)CSc2ncc3c(n2)-c2ccccc2N(C)S3(=O)=O)cc1`, the survival is inactive: 75%.

Turning to `Cc1ccc(NC(=O)N2CCC(n3c(C)nc4cccnc43)CC2)c(Cl)c1`, the survival is inactive: 80%.

Take `Clc1ccccc1-c1nc(Nc2ccccc2)nc2ccc(Br)cc12`: the survival is active: 47%.

For `Cc1ccc(NC(=O)c2cc(S(=O)(=O)N3CCOCC3)c(Cl)cc2Cl)cc1`, the survival is inactive: 68%.

For the molecule `CCOC(=O)C1CCCN(S(=O)(=O)c2ccc3[nH]c(=O)ccc3c2)C1` (stereo not given), the survival was inactive: 91%.

In the case of `Cc1ccc(S(=O)(=O)NCc2nc3nc(C)cc(C)n3n2)c(C)c1`, the survival is inactive: 125%.

In the case of `CCN1c2ccccc2-c2nc(SCC(=O)Nc3ccc(C)c(Cl)c3)ncc2S1(=O)=O`, the survival was active: 25%.

In the case of `CCOC(=O)c1ccccc1NC(=O)CSc1nc2ncccc2[nH]1`, the survival is inactive: 78%.

For `Cc1ccc(C)c(N(C)C(=O)C2CCN(S(=O)(=O)c3cccc4nsnc34)CC2)c1`, the survival was inactive: 99%.

On to `COc1ccc(-c2nnn3c2nc(N2CCCC(C)C2)c2ccccc23)cc1` (stereo not given), for which the survival is active: -3%.

Regarding `CC(=O)c1cc(C(=O)Nc2cccc(C)c2)c2ccccn12`, the survival was inactive: 88%.

As for `COc1ccc(N2CCN(C(=O)CCS(=O)(=O)c3cc4c(cc3Cl)NC(=O)CO4)CC2)cc1`, the survival is inactive: 87%.

Turning to `COC(=O)CCc1sc(Nc2ccc(OC)cc2)nc1-c1ccc(OC)cc1`, the survival is inactive: 55%.

Turning to `Cc1ccccc1NC(=O)CC1C(=O)NCCN1C(=O)c1cccc(Cl)c1` (stereo not given), the survival is inactive: 64%.

In the case of `CC(=O)c1ccc(N2CCN(C(=O)NCc3noc4ccc(C)cc34)CC2)cc1`, the survival was inactive: 45%.

For `CCn1c2ccccc2c2cc(NC(=O)COC)ccc21`, the survival was active: 43%.

In the case of `Cc1ccc(N(C(=O)Cn2nnc3ccccc32)C(C(=O)NCc2ccco2)c2cccnc2)cc1C` (stereo not given), the survival is inactive: 65%.

For `CCNC(=O)CCSc1nnc(-c2ccccc2C)o1`, the survival is inactive: 89%.

With `CCCC(=O)NCCc1ccc(F)cc1`, the survival was inactive: 119%.

Consider `CCN(C(=O)Cc1c(C(=O)O)[nH]c2ccccc12)c1ccc(OC)cc1`, for which the survival is inactive: 65%.

In the case of `CCc1ccc(CN(C(=O)c2nc(SC)ncc2Cl)C2CCS(=O)(=O)C2)cc1` (stereo not given), the survival was inactive: 71%.

As to `CCC(=O)N1c2ccccc2CC1C(=O)N1CCN(c2ccccc2)CC1` (stereo not given), the survival is inactive: 75%.

Turning to `Cc1ccc(Cl)cc1NC(=O)c1ccc(-c2nc(CSc3ccccc3)c(C)o2)cc1`, the survival is inactive: 79%.

Regarding `CC(C)Cc1nn2c(=O)cc(COC(=O)c3ccc(NC(=O)c4cccs4)cc3)nc2s1`, the survival was inactive: 122%.

Regarding `Cc1ccc2c(CNCCc3ccc(Cl)cc3)c(C(=O)O)n(Cc3ccc(F)cc3)c2c1`, the survival is active: 8%.

With `CCOC(=O)c1ccc(NC(=O)CC2C(=O)N(c3ccccc3)C(=O)N2Cc2cccs2)cc1` (stereo not given), the survival was inactive: 65%.

As for `Cc1ccc(S(=O)(=O)c2[nH]c(-c3ccccc3)nc2SCC(=O)O)cc1`, the survival is inactive: 78%.

In the case of `COc1ccc(N2CCN(CC(O)COc3ccc(C(C)(C)C)cc3)CC2)cc1` (stereo not given), the survival is inactive: 84%.

Consider `O=c1c2sc3ccccc3c2n(Cc2ccccc2)c(=O)n1Cc1ccccc1`, for which the survival is inactive: 114%.

Take `CCOc1ccc(CNC(=O)c2ccc3nc(Cc4ccc(OC)cc4)oc3c2)cc1OC`: the survival was inactive: 69%.

As to `CCOC(=O)C1CCN(C(=O)C2COc3ccccc3C2)CC1` (stereo not given), the survival was inactive: 72%.

On to `O=C(c1cc2ccccc2oc1=O)N(Cc1cccc(Cl)c1)C1CCS(=O)(=O)C1` (stereo not given), for which the survival is inactive: 137%.

Take `Cc1ccc(CN2CCSc3ccc(C(=O)N4CCN(c5cccc(C)c5C)CC4)cc32)cc1`: the survival was active: 27%.

Regarding `COc1ccc(-c2cnc(C)o2)cc1S(=O)(=O)Nc1ccc(C)c(F)c1`, the survival is inactive: 67%.

Consider `O=S(=O)(NCCc1csc(-c2ccc(F)cc2)n1)c1ccc(Cl)cc1`, for which the survival was inactive: 77%.

Take `O=c1c2c3c(sc2nnn1Cc1ccc(Br)cc1)CCCC3`: the survival is active: 37%.

Regarding `CCOc1ccccc1NC(=O)Cn1c(=O)ccc2cc(S(=O)(=O)N3CCC(C)CC3)ccc21`, the survival is inactive: 55%.

`CCOC(=O)c1ccc(NC(=O)CCc2c(C)nc3c(c(C)nn3C)c2C)cc1`: the survival was inactive: 93%.

With `COc1cc(C(Nc2ccc(S(=O)(=O)NCC3CCCO3)cc2)C(=O)NC(C)(C)C)cc(OC)c1OC` (stereo not given), the survival was inactive: 109%.

`COc1ccc(CCC(=O)NCc2ccc3c(c2)CCN3C(=O)c2ccccc2)cc1`: the survival was inactive: 79%.

For `CCC(Sc1nc(-c2ccc(F)cc2)nc2c1Cc1c(CO)cnc(C)c1O2)C(=O)Nc1ccc(F)cc1` (stereo not given), the survival is inactive: 64%.

On to `COc1c(Cl)cc(C(=O)N(Cc2ccccc2F)C2CCS(=O)(=O)C2)cc1Cl` (stereo not given), for which the survival is inactive: 82%.

Take `CCS(=O)(=O)N1CCc2cc(C(=O)N3CCN(c4ccccc4OC)CC3)ccc21`: the survival is inactive: 98%.

Regarding `CC(C)(C)OC(=O)N1CCc2nc(N3CCN(c4ncccn4)CC3)ncc2C1`, the survival was inactive: 89%.

As for `COc1ccc2cc(C#N)c(N3CCN(Cc4nnnn4CCC(C)C)CC3)nc2c1`, the survival is inactive: 98%.

As for `c1ccc(CN2CCN(CCN3CCCCC3)CC2)cc1`, the survival was inactive: 67%.

Regarding `Cc1ccc(-c2onc(C)c2C)cc1S(=O)(=O)N1CCOc2ccc(Cl)cc21`, the survival is inactive: 82%.

Regarding `COc1ccc(-n2c(SCC(N)=O)nc3c(oc4ccccc43)c2=O)cc1`, the survival was inactive: 92%.

Turning to `CC(=O)N1CCc2c(sc3c2c(=O)n(Cc2ccccc2)c(=O)n3Cc2ccccc2F)C1`, the survival was inactive: 85%.

With `CC(C)CN1CCc2nc(Nc3ccc(F)cc3F)ncc2C1`, the survival was inactive: 92%.

Take `COc1cc(/C=C(\C#N)c2nc3ccccc3[nH]2)ccc1OCc1ccccc1F`: the survival is inactive: 50%.

In the case of `Cc1cc(C)cc(NC(=O)N2CCC(CN3CCCCCC3)CC2)c1`, the survival was inactive: 90%.

Take `CCOc1ccc2nc(NC(=O)c3nc(SCc4ccccc4C)ncc3Cl)sc2c1`: the survival was inactive: 87%.

As to `CCCSc1ncc(Cl)c(C(=O)Nc2c(C(=O)c3ccc(C)cc3)oc3ccccc23)n1`, the survival was inactive: 56%.

With `CCC(=O)N1c2ccc(S(=O)(=O)CCC(=O)N3CCN(c4cc(C)ccc4C)CC3)cc2CC1C` (stereo not given), the survival was inactive: 85%.

As for `COc1ccc(C(CNC(=O)c2ccc(F)cc2)N2CCCC2)cc1` (stereo not given), the survival is inactive: 96%.

As to `Cc1c(CCNC(=O)c2ccc(Br)o2)sc2nc(-c3ccc(Cl)cc3)nn12`, the survival was inactive: 75%.

For `Cc1ccc(C(=O)N2CCCCC2)cc1NC(=O)c1nsc2ccccc12`, the survival is active: -4%.

As for `COc1ccc(S(=O)(=O)N2CCC(N3CCN(Cc4ccc(F)cc4)C(=O)C3=O)CC2)cc1`, the survival was inactive: 75%.

For `CN(C)CCNCc1cc2c(-c3cccc(F)c3)nn(-c3ccccc3)c2[nH]c1=O`, the survival is inactive: 99%.

Take `O=C(Nc1ccccc1C(F)(F)F)C1CCN(S(=O)(=O)Cc2ccccc2)CC1`: the survival was inactive: 75%.

As for `O=C(CC1S/C(=N\N=C2CCCCC2)NC1=O)Nc1ccc(F)cc1` (stereo not given), the survival was inactive: 104%.

In the case of `CCc1ccc(C(=O)c2cn(CC(=O)Nc3cc(OC)ccc3OC)c3nc(C)ccc3c2=O)cc1`, the survival was inactive: 123%.

Regarding `C=CCN1CCN(Cc2nnnn2Cc2ccc(OC)cc2)CC1`, the survival is inactive: 101%.

Take `O=C(CSc1nc2nccnc2c(=O)n1CCc1c[nH]c2ccccc12)Nc1ccccc1`: the survival is inactive: 73%.

With `c1ccc2c(c1)CN1CCCC1=N2`, the survival is inactive: 76%.

As to `COC(=O)c1c(NC(=O)/C(C#N)=C/c2ccc(OC)cc2)sc2c1CCC2`, the survival is inactive: 154%.

On to `O=C(NC1CC(=O)N(c2ccccc2)C1)C(c1ccccc1)c1ccccc1` (stereo not given), for which the survival was inactive: 89%.

`Cc1ccc(-n2c(=O)c3sc4ccccc4c3n(C)c2=O)cc1F`: the survival is inactive: 77%.

In the case of `COc1cccc(NC(=O)c2oc3ccccc3c2NC(=O)c2ccc(F)c(F)c2)c1`, the survival is inactive: 57%.
